The list shows a part of the results.
B1: PhoQ; a variant is named by its letters at X, in order, P23837 (parent)
chain: MKKLLRLFFPLSLRVRFLLATAAVVLVLSLAYGMVALIGYSVSFDKTTFRLLRGESNLFYTLAKWENNKLHVELPENIDKQSPTMTLIYDENGQLLWAQRDVPWLMKMIQPDWLKSNGFHEIEADVNDTSLLLSGDHSIQQQLQEVREDDDDAEMTHSVAVNVYPATSRMPKLTIVVVDTIPVELKSSYMVWSWFIYVLSANLLLVIPLLWVAAWWSLRPIEALAKEVRELEEHNRELLNPATTRELTSLVRNLNRLLKSERERYDKYRTTLTDLTHSLKTPLXXLQXXLRSLRSEKMSVSDAEPVMLEQISRISQQIGYYLHRASMRGGTLLSRELHPVAPLLDNLTSALNKVYQRKGVNISLDISPEISFVGEQNDFVEVMGNVLDNACKYCLEFVEISARQTDEHLYIVVEDDGPGIPLSKREVIFDRGQRVDTLRPGQGVGLAVAREITEQYEGKIVAGESMLGGARMEVIFGRQHSAPKDE

Variants of: B1
Assay: enrichment ratio after two sorts for PhoP signalling (ratio (wild type AVST 3.29)); higher = more functional
Conditions: with PhoP (E. coli)
IRKQ gave an enrichment ratio of at most 0.25.
For VKHQ, the enrichment ratio was at most 0.25.
Work on NETY yielded an enrichment ratio of at most 0.25.
IING showed an enrichment ratio of at most 0.25.
VAHN gave an enrichment ratio of at most 0.25.
HGCG was tested, and the enrichment ratio was at most 0.25.
WHIK showed an enrichment ratio of at most 0.25.
For QIRQ, the enrichment ratio was at most 0.25.
In the case of IRGA, the enrichment ratio is reported as at most 0.25.
In the case of YHRP, the enrichment ratio is reported as at most 0.25.
Variant IGGS has an enrichment ratio of at most 0.25.
In the case of PRNK, the enrichment ratio is reported as at most 0.25.
For HDRG, the enrichment ratio was at most 0.25.
For KVYW, the enrichment ratio was at most 0.25.
Variant YGAM has an enrichment ratio of at most 0.25.
With HFLP the enrichment ratio was at most 0.25.
With EKAV the enrichment ratio was at most 0.25.
Work on WMWS yielded an enrichment ratio of at most 0.25.
PFVV showed an enrichment ratio of at most 0.25.
For PTVI, the enrichment ratio was at most 0.25.
With WRHG the enrichment ratio was at most 0.25.
EPIE showed an enrichment ratio of at most 0.25.
Variant NYIH has an enrichment ratio of at most 0.25.
For FNVF, the enrichment ratio was at most 0.25.
SENA showed an enrichment ratio of at most 0.25.
In the case of MDMQ, the enrichment ratio is reported as at most 0.25.
YFIP was tested, and the enrichment ratio was at most 0.25.
Work on TYPF yielded an enrichment ratio of at most 0.25.
CSLF showed an enrichment ratio of 2.21.
TKSQ gave an enrichment ratio of 2.92.
With YHCT the enrichment ratio was at most 0.25.
With FHGH the enrichment ratio was 0.782.
For DNCE, the enrichment ratio was at most 0.25.
In the case of MRKI, the enrichment ratio is reported as at most 0.25.
LCIN showed an enrichment ratio of at most 0.25.
NILR was tested, and the enrichment ratio was at most 0.25.
Work on QSYQ yielded an enrichment ratio of 9.67.
Variant SHWK has an enrichment ratio of at most 0.25.
LLVC gave an enrichment ratio of at most 0.25.
In the case of FTRA, the enrichment ratio is reported as at most 0.25.
Variant NISS has an enrichment ratio of at most 0.25.
With MWYR the enrichment ratio was at most 0.25.
GSPL was tested, and the enrichment ratio was at most 0.25.
HLKC gave an enrichment ratio of at most 0.25.
QGLE gave an enrichment ratio of at most 0.25.
With KFPS the enrichment ratio was at most 0.25.
SMCR gave an enrichment ratio of 8.61.
HYYQ was tested, and the enrichment ratio was at most 0.25.
FLMY gave an enrichment ratio of at most 0.25.
With HRAM the enrichment ratio was at most 0.25.
TCIE gave an enrichment ratio of at most 0.25.
Work on LGYP yielded an enrichment ratio of at most 0.25.
With NTNS the enrichment ratio was at most 0.25.
For RMTF, the enrichment ratio was at most 0.25.
In the case of WQCL, the enrichment ratio is reported as at most 0.25.
PKPD was tested, and the enrichment ratio was at most 0.25.
For SNQK, the enrichment ratio was at most 0.25.
Work on ELEN yielded an enrichment ratio of at most 0.25.
For NNWT, the enrichment ratio was at most 0.25.
For QDNF, the enrichment ratio was at most 0.25.
In the case of LRHA, the enrichment ratio is reported as at most 0.25.
For MTTY, the enrichment ratio was at most 0.25.
Work on VDHA yielded an enrichment ratio of at most 0.25.
Variant RRHR has an enrichment ratio of at most 0.25.
Work on ALVW yielded an enrichment ratio of at most 0.25.
With PYHD the enrichment ratio was at most 0.25.
In the case of NISF, the enrichment ratio is reported as at most 0.25.
LYRP gave an enrichment ratio of at most 0.25.
FRWY showed an enrichment ratio of at most 0.25.
In the case of SHLL, the enrichment ratio is reported as 8.92.
Variant EYHC has an enrichment ratio of at most 0.25.
NDAP showed an enrichment ratio of at most 0.25.
For DERT, the enrichment ratio was at most 0.25.
Work on ESYC yielded an enrichment ratio of at most 0.25.
For NKCV, the enrichment ratio was at most 0.25.
Variant GNFH has an enrichment ratio of at most 0.25.
Work on QVFH yielded an enrichment ratio of at most 0.25.
WVHL gave an enrichment ratio of at most 0.25.
VGWA gave an enrichment ratio of at most 0.25.
With LARC the enrichment ratio was at most 0.25.
Variant PAYT has an enrichment ratio of at most 0.25.
With PPHW the enrichment ratio was at most 0.25.
For QSNC, the enrichment ratio was at most 0.25.
GLLL showed an enrichment ratio of 11.7.
